Results reported in the supplement of paper PMC10369915.
The other results are listed elsewhere or left out. No stated cut-off is given here; in the data, active = 3.2 or more and inactive = the rest. Only a few entries rise above the background.

B1: IRF6_Y97 (peptide)
chain: EFNLMYDGTKE
B2: IRF6_Y97_T100A (peptide)
chain: EFNLMYDGAKE
B3: IRF8_Y107 (peptide)
chain: DISEPYKVYRI
B4: IRF8_Y110_K108E (peptide)
chain: EPYEVYRIVPE
B5: IRF8_Y110_K108E_YF (peptide)
chain: EPFEVYRIVPE
B6: IRF8_Y110_YF (peptide)
chain: EPFKVYRIVPE
B7: IRS1_Y46_YF (peptide)
chain: PARLEYFENEK
B8: IRS1_Y47 (peptide)
chain: ARLEYYENEKK
B9: IRS1_Y47_YF (peptide)
chain: ARLEFYENEKK
B10: IRS1_Y896_S892G (peptide)
chain: KGPGEYVNIEF
B11: ITGA2B_Y197 (peptide)
chain: SWDKRYCEAGF
B12: ITGA2B_Y265_G267E (peptide)
chain: EYFDGYWEYSV
B13: ITGA2B_Y360 (peptide)
chain: EVGRVYLFLQP
B14: ITGA2B_Y360_E355K (peptide)
chain: KVGRVYLFLQP
B15: ITGA2B_Y845_L847P (peptide)
chain: PSDLLYIPDIQ
B16: ITGA3_Y237_S235P_YF (peptide)
chain: WDLPEYSFKDP
B17: ITGA7_Y458 (peptide)
chain: GKVFIYHGSSL
B18: ITGAE_Y549_YF (peptide)
chain: EEGRVYVFRLS
B19: ITGB2_Y125_D128Y (peptide)
chain: RRAKGYPIYLY

What follows are binders tested against SHP2 C-SH2 domain E139D (assay: enrichment score (SH2-bound / input frequency) (ratio); bacterial display of known human phosphotyrosine sites (pTyr-Var adds point mutants) read by sequencing; higher = stronger binding; tyrosines were phosphorylated by kinases first). Settings: peptide library: pTyr-Var.
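Further: displayed peptides selected on beads carrying the immobilized SH2 domain, with library peptides lacking any tyrosine serving as negative controls.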

B1 was tested. Which enrichment score did it give?
The enrichment score was inactive: 0.822.

With B2 as the binder, how does the enrichment score read?
The enrichment score was inactive: 0.89.

B3 was tested. Which enrichment score did it give?
Its enrichment score is inactive: 0.55.

B4 was tested. Which enrichment score did it give?
Its enrichment score is inactive: 1.05.

How did the enrichment score turn out when B5 was run?
Its enrichment score is inactive: 0.904.

How did the enrichment score turn out when B6 was run?
The enrichment score was inactive: 0.776.

How did the enrichment score turn out when B7 was run?
Its enrichment score is inactive: 0.773.

With B8 as the binder, how does the enrichment score read?
Its enrichment score is inactive: 0.773.

How did the enrichment score turn out when B9 was run?
The enrichment score was inactive: 1.39.

How did the enrichment score turn out when B10 was run?
The enrichment score was inactive: 1.3.

B11 was tested. Which enrichment score did it give?
Its enrichment score is inactive: 0.56.

For B12, which enrichment score is on record?
Its enrichment score is inactive: 1.1.

B13 was tested. Which enrichment score did it give?
Its enrichment score is inactive: 0.503.

With B14 as the binder, how does the enrichment score read?
The enrichment score was inactive: 1.2.

How did the enrichment score turn out when B15 was run?
The enrichment score was inactive: 1.33.

With B16 as the binder, how does the enrichment score read?
The enrichment score was inactive: 1.61.

B17 was tested. Which enrichment score did it give?
Its enrichment score is inactive: 1.19.

With B18 as the binder, how does the enrichment score read?
The enrichment score was inactive: 0.909.

Which enrichment score does the source give for B19 here?
The enrichment score was inactive: 0.377.

What follows are binders tested against SHP2 C-SH2 domain wild-type in the same assay as above. Settings: peptide library: pTyr-Var.

Which enrichment score does the source give for B1 here?
The enrichment score was inactive: 0.748.

For B2, which enrichment score is on record?
Its enrichment score is inactive: 0.78.

How did the enrichment score turn out when B3 was run?
The enrichment score was inactive: 0.572.

For B4, which enrichment score is on record?
The enrichment score was inactive: 0.944.

With B5 as the binder, how does the enrichment score read?
Its enrichment score is inactive: 0.622.

How did the enrichment score turn out when B6 was run?
Its enrichment score is inactive: 0.708.

For B7, which enrichment score is on record?
The enrichment score was inactive: 0.667.

For B8, which enrichment score is on record?
Its enrichment score is inactive: 0.893.

For B9, which enrichment score is on record?
The enrichment score was inactive: 1.19.

With B10 as the binder, how does the enrichment score read?
The enrichment score was inactive: 1.6.

For B11, which enrichment score is on record?
Its enrichment score is inactive: 0.607.

How did the enrichment score turn out when B12 was run?
Its enrichment score is inactive: 1.7.

Which enrichment score does the source give for B13 here?
The enrichment score was inactive: 0.662.

How did the enrichment score turn out when B14 was run?
The enrichment score was inactive: 1.66.

Which enrichment score does the source give for B15 here?
Its enrichment score is inactive: 1.03.

B16 was tested. Which enrichment score did it give?
Its enrichment score is inactive: 1.93.

For B17, which enrichment score is on record?
Its enrichment score is inactive: 0.986.

How did the enrichment score turn out when B18 was run?
Its enrichment score is inactive: 0.791.

With B19 as the binder, how does the enrichment score read?
The enrichment score was inactive: 0.267.

These binders were tested against SHP2 N-SH2 domain L43F in the same assay as above. Settings: peptide library: pTyr-Var.

With B1 as the binder, how does the enrichment score read?
Its enrichment score is inactive: 0.925.

With B2 as the binder, how does the enrichment score read?
Its enrichment score is inactive: 0.777.

For B3, which enrichment score is on record?
Its enrichment score is inactive: 0.35.

Which enrichment score does the source give for B4 here?
Its enrichment score is inactive: 1.05.

With B5 as the binder, how does the enrichment score read?
The enrichment score was inactive: 0.792.

B6 was tested. Which enrichment score did it give?
Its enrichment score is inactive: 0.877.

For B7, which enrichment score is on record?
Its enrichment score is inactive: 0.872.

B8 was tested. Which enrichment score did it give?
The enrichment score was inactive: 0.885.

Which enrichment score does the source give for B9 here?
Its enrichment score is inactive: 1.34.

For B10, which enrichment score is on record?
Its enrichment score is active: 3.65.

How did the enrichment score turn out when B11 was run?
Its enrichment score is inactive: 0.604.

How did the enrichment score turn out when B12 was run?
Its enrichment score is inactive: 1.42.

How did the enrichment score turn out when B13 was run?
The enrichment score was inactive: 0.664.

B14 was tested. Which enrichment score did it give?
The enrichment score was inactive: 1.37.

How did the enrichment score turn out when B15 was run?
Its enrichment score is inactive: 1.15.

For B16, which enrichment score is on record?
Its enrichment score is inactive: 2.45.

For B17, which enrichment score is on record?
Its enrichment score is inactive: 1.6.

Which enrichment score does the source give for B18 here?
Its enrichment score is inactive: 0.694.

For B19, which enrichment score is on record?
Its enrichment score is inactive: 0.245.

The binders below were run against SHP2 N-SH2 domain T42A in the same assay as above. Settings: peptide library: pTyr-Var.

How did the enrichment score turn out when B1 was run?
The enrichment score was inactive: 0.751.

For B2, which enrichment score is on record?
Its enrichment score is inactive: 0.746.

Which enrichment score does the source give for B3 here?
The enrichment score was inactive: 0.634.

B4 was tested. Which enrichment score did it give?
Its enrichment score is inactive: 0.811.

With B5 as the binder, how does the enrichment score read?
Its enrichment score is inactive: 0.636.

For B6, which enrichment score is on record?
The enrichment score was inactive: 0.735.

B7 was tested. Which enrichment score did it give?
Its enrichment score is inactive: 0.913.

For B8, which enrichment score is on record?
The enrichment score was inactive: 0.738.

With B9 as the binder, how does the enrichment score read?
The enrichment score was inactive: 1.32.

Which enrichment score does the source give for B10 here?
Its enrichment score is active: 5.32.

B11 was tested. Which enrichment score did it give?
The enrichment score was inactive: 0.682.

For B12, which enrichment score is on record?
Its enrichment score is inactive: 1.21.

For B13, which enrichment score is on record?
Its enrichment score is inactive: 0.578.

How did the enrichment score turn out when B14 was run?
Its enrichment score is inactive: 1.04.

Which enrichment score does the source give for B15 here?
Its enrichment score is inactive: 0.85.

With B16 as the binder, how does the enrichment score read?
Its enrichment score is inactive: 1.39.

Which enrichment score does the source give for B17 here?
Its enrichment score is inactive: 1.17.

B18 was tested. Which enrichment score did it give?
Its enrichment score is inactive: 0.726.

How did the enrichment score turn out when B19 was run?
The enrichment score was inactive: 0.312.

These binders were tested against SHP2 N-SH2 domain T52S in the same assay as above. Settings: peptide library: pTyr-Var.

With B1 as the binder, how does the enrichment score read?
The enrichment score was inactive: 0.82.

How did the enrichment score turn out when B2 was run?
Its enrichment score is inactive: 0.696.

For B3, which enrichment score is on record?
Its enrichment score is inactive: 0.713.

Which enrichment score does the source give for B4 here?
The enrichment score was inactive: 0.961.

How did the enrichment score turn out when B5 was run?
Its enrichment score is inactive: 0.874.

With B6 as the binder, how does the enrichment score read?
Its enrichment score is inactive: 0.858.

B7 was tested. Which enrichment score did it give?
The enrichment score was inactive: 0.972.

Which enrichment score does the source give for B8 here?
Its enrichment score is inactive: 0.868.

For B9, which enrichment score is on record?
The enrichment score was inactive: 1.1.

B10 was tested. Which enrichment score did it give?
The enrichment score was active: 4.3.

With B11 as the binder, how does the enrichment score read?
The enrichment score was inactive: 0.67.

How did the enrichment score turn out when B12 was run?
Its enrichment score is inactive: 0.901.

With B13 as the binder, how does the enrichment score read?
Its enrichment score is inactive: 0.626.

For B14, which enrichment score is on record?
Its enrichment score is inactive: 1.27.

B15 was tested. Which enrichment score did it give?
Its enrichment score is inactive: 0.83.

For B16, which enrichment score is on record?
The enrichment score was inactive: 1.81.

How did the enrichment score turn out when B17 was run?
Its enrichment score is inactive: 1.67.

With B18 as the binder, how does the enrichment score read?
Its enrichment score is inactive: 0.807.

Which enrichment score does the source give for B19 here?
The enrichment score was inactive: 0.174.

What follows are binders tested against SHP2 N-SH2 domain wild-type in the same assay as above. Settings: peptide library: pTyr-Var.

With B1 as the binder, how does the enrichment score read?
The enrichment score was inactive: 0.845.

Which enrichment score does the source give for B2 here?
The enrichment score was inactive: 0.83.

With B3 as the binder, how does the enrichment score read?
Its enrichment score is inactive: 0.591.

Which enrichment score does the source give for B4 here?
Its enrichment score is inactive: 0.868.

For B5, which enrichment score is on record?
Its enrichment score is inactive: 0.642.

With B6 as the binder, how does the enrichment score read?
The enrichment score was inactive: 0.829.

For B7, which enrichment score is on record?
The enrichment score was inactive: 0.9.

How did the enrichment score turn out when B8 was run?
Its enrichment score is inactive: 0.882.

Which enrichment score does the source give for B9 here?
Its enrichment score is inactive: 0.927.

B10 was tested. Which enrichment score did it give?
Its enrichment score is inactive: 1.23.

B11 was tested. Which enrichment score did it give?
The enrichment score was inactive: 0.509.

How did the enrichment score turn out when B12 was run?
The enrichment score was inactive: 1.35.

Which enrichment score does the source give for B13 here?
The enrichment score was inactive: 1.05.

How did the enrichment score turn out when B14 was run?
Its enrichment score is inactive: 1.54.

For B15, which enrichment score is on record?
The enrichment score was inactive: 0.815.

How did the enrichment score turn out when B16 was run?
Its enrichment score is inactive: 1.84.

Which enrichment score does the source give for B17 here?
The enrichment score was inactive: 1.12.

How did the enrichment score turn out when B18 was run?
Its enrichment score is inactive: 0.796.

B19 was tested. Which enrichment score did it give?
The enrichment score was inactive: 0.364.
